From patent US20110077237A1, “KINASE INHIBITORS” (VERTEX PHARMACEUTICALS INCORPORATED, priority 2007, published 2011)
Read-outs that look alike come from different tables or passages of the source. Some entries share one result that the patent states for a list of compounds. Some ranges recur; such a range may be that of the whole group of compounds.

Experiments:
Format in all cases: biochemical
PKC alpha kinase = PKC alpha kinase (Homo sapiens, UniProt P17252); test: PKC Alpha coupled-enzyme kinase assay; conditions: 4.5 nM PKC alpha, 130 μM ATP, 30° C.
Description: An assay buffer solution was prepared which consisted of 100 mM HEPES (pH 7.5), 10 mM MgCl2, 25 mM NaCl, 0.1 mM EDTA, 100 μM CaCl2 and 0.01% Brij. […] To 16 μL of this enzyme buffer, in a 384 well plate, was added 1 μL of VRT stock solution in DMSO. The mixture was allowed to equilibrate for 10 mins at 30° C. The enzyme reaction was initiated by the addition of 16 μL stock ATP solution prepared in assay buffer to a final assay concentration of 130 μM. Initial rate data was determined from the rate of change of absorbance at 340 nm (corresponding to stoichiometric consumption of NADH) using a Molecular Devices Spectramax plate reader (Sunnyvale, Calif.) over 15 mins at 30° C. For each Ki determination 12 data points covering the VRT concentration range of 0-20 μM were obtained in duplicate (DMSO stocks were prepared from an initial 10 mM VRT stock with subsequent 1:2 serial dilutions). Ki values were calculated from initial rate data by non-linear regression using the Prism software package (Prism 4.0a, Graphpad Software, San Diego, Calif.).

PKC theta = PKC theta (Homo sapiens, UniProt Q04759); test: PKC Theta I coupled-enzyme (NADH absorbance) kinase assay; conditions: 18 nM PKC theta, 240 μM ATP, 30° C., absorbance at 340 nm
Description: (§1) An assay buffer solution was prepared which consisted of 100 mM HEPES (pH 7.5), 10 mM MgCl2, 25 mM NaCl, 0.1 mM EDTA and 0.01% Brij. […] To 60 μL of this enzyme buffer, in a 384 well plate, was added 2 μL of VRT stock solution in DMSO. The mixture was allowed to equilibrate for 10 mins at 30° C. […] Ki values were calculated from initial rate data by non-linear regression using the Prism software package (Prism 4.0a, Graphpad Software, San Diego, Calif.).

PKC delta kinase = PKC delta kinase (Homo sapiens, UniProt Q05655); test: PKC Delta coupled-enzyme kinase assay
Description: as §1, with “To 16” for “To 60”, “added 1” for “added 2”

[1] = 46 nM PKC delta, 150 μM ATP, 30° C.; read-out: Ki PKC delta

SMILES | Ki (PKC alpha kinase) | Ki (PKC theta) | Ki (PKC delta kinase; [1]) | Ki (PKC delta kinase; read-out: Ki PKC delta; 46 nM PKC delta, 150 μM ATP, 30° C.)
Nc1ncccc1C(=O)c1cccc(N2CCCNCC2)n1 [compound 2] | 50 to 500 nM |  |  | 
Nc1ncccc1C(=O)c1nc(N2CCCNCC2)cs1 [compound 102] | 50 to 500 nM | < 50 nM |  | 
C#Cc1cnc(N)c(C(=O)c2cccc(N3CCCNCC3)n2)c1 [compound 108] |  | 50 to 500 nM | < 50 nM | 
Nc1ncc(Br)cc1C(=O)c1nc(N2CCCNCC2)cs1 [compound 132] |  | < 50 nM | < 50 nM | 
Nc1ncc(Br)cc1C(=O)c1cccc(N2CCC(N)CC2)n1 [compound 136] |  | < 50 nM | < 50 nM | 
Nc1ncc(C2CC2)cc1C(=O)c1cccc(N2CCCNCC2)n1 [compound 154] | 50 to 500 nM | 50 to 500 nM |  | 
Cc1cnc(N)c(C(=O)c2cccc(N3CCCNCC3)n2)c1 [compound 155, (6-(1,4-diazepan-1-yl)pyridin-2-yl)(2-amino-5-methylpyridin-3-yl)methanone bis(2,2,2-trifluoroacetate)] | 50 to 500 nM | 50 to 500 nM |  | 
Nc1ncc(-c2c[nH]c3ccccc23)cc1C(=O)c1cccc(N2CCCNCC2)n1 [compound 179] |  |  | < 50 nM | 
Nc1ncc(NCc2ccccc2)cc1C(=O)c1cccc(N2CCCNCC2)n1 [compound 190] | 50 to 500 nM |  |  | 
CC(C)C[C@H]1CN(c2cccc(C(=O)c3cccnc3N)n2)CCN1 [compound 193] | 50 to 500 nM |  |  | 
CC(C)[C@H]1CN(c2cccc(C(=O)c3cccnc3N)n2)CCN1 [compound 194] | 50 to 500 nM |  |  | < 50 nM
C=Cc1cnc(N)c(C(=O)c2cccc(N3CCNCC3)n2)c1 [compound 202] |  | < 50 nM | < 50 nM | 
Cn1cc(-c2cnc(N)c(C(=O)c3cccc(N4CCCNCC4)n3)c2)c2ccccc21 [compound 210] |  |  | < 50 nM | 
Nc1ncc(-c2c[nH]c3ccccc23)cc1C(=O)c1cncc(N2CCCNCC2)n1 [compound 213] |  |  | < 50 nM | 
C=Cc1cnc(N)c(C(=O)c2cccc(N3CCNC[C@H]3C)n2)c1 [compound 238] |  | < 50 nM | < 50 nM | 
Nc1ncc(Cl)cc1C(=O)c1cccc(N2CCCNCC2)n1 [compound 245] | 50 to 500 nM | 50 to 500 nM |  | 

SMILES | Ki (PKC alpha kinase) | Ki (PKC theta) | Ki (PKC delta kinase; [1]) | Ki (PKC delta kinase; read-out: Ki PKC delta; 46 nM PKC delta, 150 μM ATP, 30° C.)
Cc1ccc(N2CCNC(c3ccccc3)C2)nc1C(=O)c1cccnc1N (stereo not shown) [compound 252] | 50 to 500 nM | < 50 nM |  | 
Nc1ncccc1C(=O)c1cccc(N2CCNC(c3cccc(Cl)c3)C2)n1 (stereo not shown) [compound 301] |  | < 50 nM | < 50 nM | 
CC1(N)CCN(c2cccc(C(=O)c3cccnc3N)n2)CC1 [compound 305] | 50 to 500 nM | < 50 nM |  | 
COc1cccc(C2CN(c3cccc(C(=O)c4cccnc4N)n3)CCN2)c1 (stereo not shown) [compound 309] | 50 to 500 nM | 50 to 500 nM |  | 
Nc1ncccc1C(=O)c1cccc(N2CCNC(c3ccc(O)cc3)C2)n1 (stereo not shown) [compound 312] | 50 to 500 nM | 50 to 500 nM |  | 
Nc1ncccc1C(=O)c1cccc(N2CCNC(c3ccc(Cl)c(Cl)c3)C2)n1 (stereo not shown) [compound 313] | 50 to 500 nM | < 50 nM |  | 
Nc1ncccc1C(=O)c1cccc(N2CCNC(c3cccc(C(F)(F)F)c3)C2)n1 (stereo not shown) [compound 314] | 50 to 500 nM | < 50 nM |  | 
Nc1ncccc1C(=O)c1nc(N2CCNCC2)ccc1Cl [compound 315] | 50 to 500 nM | < 50 nM |  | 
Nc1ncccc1C(=O)c1nc(N2CCNCC2)ccc1C(F)(F)F [compound 316] | 50 to 500 nM | < 50 nM |  | 
Nc1ncccc1C(=O)c1nc(N2CCNC(c3ccccc3)C2)ccc1C(F)(F)F (stereo not shown) [compound 317] | 50 to 500 nM | < 50 nM |  | 
Nc1ncccc1C(=O)c1nc(N2CCCNCC2)ccc1C(F)(F)F [compound 318] | 50 to 500 nM | 50 to 500 nM |  | 
Nc1ncccc1C(=O)c1nc(N2CCNC(c3ccccc3)C2)ccc1Cl (stereo not shown) [compound 321] | 50 to 500 nM | < 50 nM |  | 
Nc1ncccc1C(=O)c1nc(N2CCC(N)CC2)ccc1Cl [compound 322] | 50 to 500 nM | < 50 nM |  | 
Nc1ncccc1C(=O)c1nc(N2CCCNCC2)ccc1Cl [compound 324] | 50 to 500 nM | < 50 nM |  | 
C=Cc1cnc(N)c(C(=O)c2nc(N3CCNCC3)ccc2C(F)(F)F)c1 [compound 327] |  | < 50 nM | < 50 nM | 
Nc1ncc(Br)cc1C(=O)c1nc(N2CCNCC2)ccc1Cl [compound 329] | 50 to 500 nM | < 50 nM |  | 
